Measurements from patent US6727076B2 (priority 1995, dated 2004).
The name of at least one read-out is uncertain. Peptide text beside a SMILES is read from it.

Tests used:
Format in all cases: cell-based
[1] = system: E. coli strain 14443 (MG1655 (FB426)); note: key: '+' indicates that the organism tested was capable of utilizing the carbon source listed; '−' indicates that the organism tested was not capable of utilizing the carbon source listed; 'w' indicates weak positive reactions
[2] = system: E. coli strain 14444 (MG1655 xylA)
[3] = system: E. coli strain 14445 (MG1655 himA); note: key: '+' indicates that the organism tested was capable of utilizing the carbon source listed; '−' indicates that the organism tested was not capable of utilizing the carbon source listed; 'w' indicates weak positive reactions
[4] = system: E. coli strain 6320 (W3110); note: key: '+' indicates that the organism tested was capable of utilizing the carbon source listed; '−' indicates that the organism tested was not capable of utilizing the carbon source listed; 'w' indicates weak positive reactions
[5] = system: E. coli strain 6321 (MG1655)
[6] = system: E. coli strain 6322 (EMG2 (K12, λF+)); note: key: '+' indicates that the organism tested was capable of utilizing the carbon source listed; '−' indicates that the organism tested was not capable of utilizing the carbon source listed; 'w' indicates weak positive reactions
[7] = system: E. coli strain 11547 (O157:H7)
[8] = system: E. coli strain 13671 (O157:H? gur+)
[9] = system: E. coli strain 13673 (O157)
[10] = system: E. coli strain 13675 (O157)

SMILES	carbon source utilization [1]	carbon source utilization [2]	carbon source utilization [3]	carbon source utilization [4]	carbon source utilization [5]	carbon source utilization [6]	carbon source utilization [7]	carbon source utilization [8]	carbon source utilization [9]	carbon source utilization [10]
N[C@@H](CC(=O)O)C(=O)O [L-aspartic acid]	+	+	+	−	+	+	+	+	+	+
OC[C@H]1O[C@@H](O[C@H]2[C@H](O)[C@@H](O)[C@@H](O)O[C@@H]2CO)[C@H](O)[C@@H](O)[C@H]1O [α-D-lactose]	+	+	+	+	+	+	+	+	+	+
OC[C@H]1O[C@@](CO)(O[C@H]2O[C@H](CO)[C@@H](O)[C@H](O)[C@H]2O)[C@@H](O)[C@@H]1O [Sucrose]	−	−	−	−	−	−	−	+	+	+
O=C(CO)[C@@H](O)[C@H](O)[C@H](O)COP(=O)(O)O [Fructose-6-phosphate]	+	+	+	+	+	+	+	+	+	+
COC(=O)C(C)=O [Methyl pyruvate]	+	+	+	+	+	+	+	+	+	+
N[C@H](CC(=O)O)C(=O)O [D-aspartic acid]	−	−	−	−	−	−	−	−	−	−
CC(=O)N[C@H]1C(O)O[C@H](CO)[C@@H](O)[C@@H]1O (stereo partly drawn) [N-acetyl-D-glucosamine]	+	+	+	+	+	+	+	+	+	+
OC[C@@H](O)[C@@H](O)[C@H](O)[C@@H](O)CO [D-sorbitol]	+	+	+	+	+	+	−	−	−	−
NCCc1ccccc1 [Phenylethyl amine]	−	−	−	−	−	−	−	−	−	−
O=C(CO)[C@H](O)[C@H](O)[C@H](O)CO [D-psicose]	+	+	+	+	+	+	+	+	+	+
OC[C@@H](O)[C@@H](O)[C@H](O)[C@H](O)CO [D-mannitol]	+	+	+	+	+	+	+	+	+	+
CCC(=O)O [Propionic acid]	+	+	−	+	+	+	+	+	+	+
Nc1ncnc2c1ncn2[C@@H]1O[C@H](CO)[C@@H](O)[C@H]1O [Adenosine]	+	+	+	+	+	+	+	+	+	+
NCC(=O)N1CCC[C@H]1C(=O)O [Glycyl-L-proline] (H-Gly-Pro-OH)	+	+	+	+	+	+	+	+	+	+
O=C[C@H](O)[C@H](O)[C@H](O)CO [D-ribose]	+	+	+	+	+	+	+	+	+	+
O=C[C@H](O)[C@H](O)[C@@H](O)CO [L-lyxose]	−	−	−	−	+	+	−	−	−	−
O=C(CO)[C@@H](O)[C@H](O)[C@H](O)CO [D-fructose]	+	+	+	+	+	+	+	+	+	+
O=C[C@H](O)[C@@H](O)[C@@H](O)[C@H](O)CO [D-galactose]	+	+	+	+	+	+	+	+	+	+
O=C(O)[C@@H](O)[C@H](O)[C@H](O)[C@@H](O)C(=O)O [Mucic acid]	+	+	+	+	+	+	+	+	+	+
OC[C@H]1O[C@@H](O[C@@H]2[C@@H](CO)OC(O)(CO)[C@H]2O)[C@H](O)[C@@H](O)[C@H]1O (mixture of isomers) [Lactulose]	−	−	−	−	−	+	+	+	+	+
O=C[C@H](O)[C@@H](O)[C@@H](O)[C@H](O)C(=O)O [D-galacturonic acid]	+	+	+	+	+	+	+	+	+	+
O=C[C@H](O)[C@@H](O)[C@@H](O)CO [L-arabinose]	+	+	+	+	+	+	+	+	+	+
